Source: PubChem BioAssay AID686971 (National Center for Advancing Translational Sciences (NCATS), 2013)
Out of some 360,000 compounds screened, about 7,500 (2.1%) were called active. The shares of active, inactive and inconclusive entries below differ from those in the screen. Calls follow the shape of the dose curve; as a rule, active = well fitted cell-killing curve with a large enough effect; inconclusive = small, poorly fitted or top-dose-only effect, or effect the other way, or another doubt; inactive = no such curve, though single readings can be large or run the other way. Potencies of inconclusive entries are left out as doubtful fits.

Test: qHTS for induction of synthetic lethality in tumor cells producing 2HG: qHTS for the HT-1080-IDH1KD cell line;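 as to activity, negative = toxicity: 0% = DMSO wells and -100% = cell-free medium wells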
Details: HT-1080 IDH1 knockdown viability, ATP luminescence, 48 h; activity, negative = toxicity: at 46.1 µM (top of the series) unless noted
How it was run: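 Assay cells: HT-1080 with IDH1 knockdown, 750 per well, RPMI/5% FBS. Exposure: 48 h at 37 °C following 2 h pre-incubation. Read: CellTiter-Glo luminescence; fitted concentration-response, curve class assigned.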
Potency is read from the fitted curve at half-maximal effect; tags tell the direction and shape of the fitted curve.

SMILES | Potency | activity, negative = toxicity
CCCCC(CC)C(=O)Nc1ncc([N+](=O)[O-])s1 (centres undefined) | active: 18.4 µM | 
CCC1CCc2c(sc(NC(=O)c3ccoc3C)c2C(N)=O)C1 (centres undefined) | inconclusive [cytotoxic, single point] | 
CCN(CC)c1ccc(/C=N/Nc2nc3ccccc3[nH]2)cc1 | inconclusive [cytotoxic, partial curve] | 
Cc1ccc(S(=O)(=O)N(CC(=O)Nc2cccnc2)c2cccc(Br)c2)cc1 | inconclusive [cytotoxic, single point] | 
COc1ccc(NC(=O)CN(C)C(=O)/C=C/c2cn(-c3ccccc3)nc2-c2ccc(F)cc2)cc1 | inconclusive [cytotoxic, single point] | 
C[C@H]1CN([C@@H](C)CO)C(=O)Cc2cc(NC(=O)CCC(F)(F)F)ccc2O[C@H]1CN(C)S(=O)(=O)c1ccc(F)cc1 | inconclusive [cytotoxic, partial curve, poor fit] | 
CCCn1c(=O)[nH]c(=O)c2c(C(=O)OCC)cc(-c3cccs3)nc21 | inconclusive [cytotoxic, single point] | 
O=C1C(Cl)=C(NCCCO)C(=O)c2ccccc21 | inconclusive [cytotoxic, partial curve] | 
Cc1ccc(CC2C(=O)N(c3nc(C)cc(C)n3)C(=O)C2C)cc1 (centres undefined) |  | inactive: 12.5%
Cc1ccc(NC(=O)Nc2nnc(Cc3ccc([N+](=O)[O-])cc3)s2)cc1C | inconclusive [cytotoxic, partial curve] | 
COc1ccc(C(=O)NCCn2ccc3ccccc32)c(OC)c1 | inconclusive [cytotoxic, single point] | 
CC(C)(Sc1ccc(CCN(CCCCC2CCCCC2)C(=O)NC2CCCCC2)cc1)C(=O)O | inconclusive [cytotoxic, single point] | 
CN(C)CCNc1ncnc2ccccc12 |  | inactive: 0.192%
C=CCn1c(=N)n(CC(=O)c2ccc(Br)cc2)c2ccccc21 | inconclusive [cytotoxic, single point] | 
O=C(OCc1cccc(C(F)(F)F)c1)c1cc(S(=O)(=O)N2CCOCC2)ccc1F |  | inactive: -15.6%
CC(=O)CN1C(=O)NC(c2ccccc2)(c2ccccc2)C1=O |  | inactive: -0.165%
CCCC(=O)Nc1ccccc1NC(=O)C1CCCCC1 |  | inactive: -5.94%
O=C1C(=O)N(C/C=C/c2ccccc2)c2ccccc21 | inconclusive [cytotoxic, single point] | 
COc1ccc(C)c(Cn2c(-c3nonc3N)nc3ccccc32)c1 | active: 5.17 µM | 
